# Some of the results follow. Repeats are few or missing, and single values can be far off.
# Test system: WM3619
# Assay: cell count relative to DMSO control; melanoma cells; higher = more viable cells
# Conditions: library dose: standard library concentration; 72 h
# 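Also: cells treated in 1,536-well plates, then fixed and DAPI-stained, with nuclei counted from automated high-throughput microscope images.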
row,SMILES,cell count
1,"Cc1cn(-c2cc(NC(=O)c3ccc(C)c(Nc4nccc(-c5cccnc5)n4)c3)cc(C(F)(F)F)c2)cn1 [nilotinib] + COc1ccc(COc2ccc(Cc3cnc(N)nc3N)cc2OC)cc1 [GW2580] (first compound 1 µM, partner dose 5 µM)",69%
2,"Cn1c(=O)n(-c2ccc(C(C)(C)C#N)cc2)c2c3cc(-c4cnc5ccccc5c4)ccc3ncc21 + CO[C@H]1C[C@@H]2CC[C@@H](C)[C@@](O)(O2)C(=O)C(=O)N2CCCC[C@H]2C(=O)O[C@H]([C@H](C)C[C@@H]2CC[C@@H](OCCO)[C@H](OC)C2)CC(=O)[C@H](C)/C=C(\C)[C@@H](O)[C@@H](OC)C(=O)[C@H](C)C[C@H](C)/C=C/C=C/C=C/1C [everolimus] (first compound 0.02 µM, partner dose 0.1 µM)",48.1%
3,"COc1ccc(C2=N[C@@H](c3ccc(Cl)cc3)[C@@H](c3ccc(Cl)cc3)N2C(=O)N2CCNC(=O)C2)c(OC(C)C)c1 [Nutlin-3] + CS(=O)(=O)CCNCc1ccc(-c2ccc3ncnc(Nc4ccc(OCc5cccc(F)c5)c(Cl)c4)c3c2)o1 [lapatinib] (first compound 0.5 µM, partner dose 4 µM)",88.2%
4,"CC(C)C[C@H](NC(=O)[C@H](Cc1ccccc1)NC(=O)c1cnccn1)B(O)O [Bortezomib] + O=C(O)c1ccc2c(c1)nc(Nc1cccc(Cl)c1)c1ccncc12 [CX4945] (first compound 0.005 µM, partner dose 2 µM)",1.99%

# Reference: the supplement of paper PMC4604168 (melanoma cell lines)
